Assay results as given in patent US20250250343A1 (UNITY BIOTECHNOLOGY, published 2025).

B1: Construct #5 (bispecific antibody, human IgG1, kappa, L234A L235A)
heavy: DVQLVESGGGVVRPGESLRLSCTASGFTFDSYGMSWVRQAPGKGLEWVSSINVGDNTYYADSVRGRFIISRDSSRNTLYLQMNSLTAEDTAVYYCANWNSFFDYWGLGTLVTVSSASTKGPSVFPLAPSSKSTSGGTAALGCLVKDYFPEPVTVSWNSGALTSGVHTFPAVLQSSGLYSLSSVVTVPSSSLGTQTYICNVNHKPSNTKVDKKVEPKSCDKTHTCPPCPAPEAAGGPSVFLFPPKPKDTLMISRTPEVTCVVVDVSHEDPEVKFNWYVDGVEVHNAKTKPREEQYNSTYRVVSVLTVLHQDWLNGKEYKCKVSNKALGAPIEKTISKAKGQPREPQVYTLPPSREEMTKNQVSLTCLVKGFYPSDIAVEWESNGQPENNYKTTPPVLDSDGSFFLYSKLTVDKSRWQQGNVFSCSVMHEALHNHYTQKSLSLSPGKGGGGSGGGGSGGGGSGGGGSEVQLVESGGGLVQPGGSLRLSCAASGYDFTHYGMNWVRQAPGKGLEWVGWINTYTGEPTYAADFKRRFTFSLDTSKSTAYLQMNSLRAEDTAVYYCAKYPYYYGTSHWYFDVWGQGTLVTVSSASTKGPSVFPLAPSSKSTSGGTAALGCLVKDYFPEPVTVSWNSGALTSGVHTFPAVLQSSGLYSLSSVVTVPSSSLGTQTYICNVNHKPSNTKVDKKVEPKSCDKTHGGGGSGGGGSGGGGSGGGGSDIQLTQSPSSLSASVGDRVTITCSASQDISNYLNWYQQKPGKAPKVLIYFTSSLHSGVPSRFSGSGSGTDFTLTISSLQPEDFATYYCQQYSTVPWTFGQGTKVEIKRTVAAPSVFIFPPSDEQLKSGTASVVCLLNNFYPREAKVQWKVDNALQSGNSQESVTEQDSKDSTYSLSSTLTLSKADYEKHKVYACEVTHQGLSSPVTKSFNRGEC
light: EIVLTQSPGTLSLSPGEIATLSCRASQNVRSDLAWYQQKPGQAPRLLIYDASNRATGIPDRFSGSGSGTDFTLTISSLQSEDFAVYYCQQYSNWPPLTFGGGTKVEIKRTVAAPSVFIFPPSDEQLKSGTASVVCLLNNFYPREAKVQWKVDNALQSGNSQESVTEQDSKDSTYSLSSTLTLSKADYEKHKVYACEVTHQGLSSPVTKSFNRGEC
B2: #23 (bispecific antibody, human IgG1, kappa, L234A L235A)
heavy chain: DVQLVESGGGVVRPGESLRLSCTASGFTFDSYGMSWVRQAPGKGLEWVSSINVGDNTYYADSVRGRFIISRDSSRNTLYLQMNSLTAEDTAVYYCANWNSFFDYWGLGTLVTVSSASTKGPSVFPLAPSSKSTSGGTAALGCLVKDYFPEPVTVSWNSGALTSGVHTFPAVLQSSGLYSLSSVVTVPSSSLGTQTYICNVNHKPSNTKVDKKVEPKSCDKTHTCPPCPAPEAAGGPSVFLFPPKPKDTLMISRTPEVTCVVVDVSHEDPEVKFNWYVDGVEVHNAKTKPREEQYNSTYRVVSVLTVLHQDWLNGKEYKCKVSNKALGAPIEKTISKAKGQPREPQVYTLPPSREEMTKNQVSLTCLVKGFYPSDIAVEWESNGQPENNYKTTPPVLDSDGSFFLYSKLTVDKSRWQQGNVFSCSVMHEALHNHYTQKSLSLSPGKGGGGSGGGGSGGGGSGGGGSEVQLVESGGGLVQPGGSLRLSCAASGYDFTHYGMNWVRQAPGKGLEWVGWINTYTGEPTYAADFKRRFTFSLDTSKSTAYLQMNSLRAEDTAVYYCAKYPYYYGTSHWYFDVWGQGTLVTVSSASTKGPSVFPLAPSSKSTSGGTAALGCLVKDYFPEPVTVSWNSGALTSGVHTFPAVLQSSGLYSLSSVVTVPSSSLGTQTYICNVNHKPSNTKVDKKVEPKSCDKTHGGGGSGGGGSGGGGSGGGGSGGGGSGGGGSGGGGSDIQLTQSPSSLSASVGDRVTITCSASQDISNYLNWYQQKPGKAPKVLIYFTSSLHSGVPSRFSGSGSGTDFTLTISSLQPEDFATYYCQQYSTVPWTFGQGTKVEIKRTVAAPSVFIFPPSDEQLKSGTASVVCLLNNFYPREAKVQWKVDNALQSGNSQESVTEQDSKDSTYSLSSTLTLSKADYEKHKVYACEVTHQGLSSPVTKSFNRGEC
light chain (kappa): B1 light
B3: #24 (bispecific antibody, human IgG1, kappa, L234A L235A)
heavy chain: DVQLVESGGGVVRPGESLRLSCTASGFTFDSYGMSWVRQAPGKGLEWVSSINVGDNTYYADSVRGRFIISRDSSRNTLYLQMNSLTAEDTAVYYCANWNSFFDYWGLGTLVTVSSASTKGPSVFPLAPSSKSTSGGTAALGCLVKDYFPEPVTVSWNSGALTSGVHTFPAVLQSSGLYSLSSVVTVPSSSLGTQTYICNVNHKPSNTKVDKKVEPKSCDKTHTCPPCPAPEAAGGPSVFLFPPKPKDTLMISRTPEVTCVVVDVSHEDPEVKFNWYVDGVEVHNAKTKPREEQYNSTYRVVSVLTVLHQDWLNGKEYKCKVSNKALGAPIEKTISKAKGQPREPQVYTLPPSREEMTKNQVSLTCLVKGFYPSDIAVEWESNGQPENNYKTTPPVLDSDGSFFLYSKLTVDKSRWQQGNVFSCSVMHEALHNHYTQKSLSLSPGKGGGGSGGGGSGGGGSGGGGSEVQLVESGGGLVQPGGSLRLSCAASGYDFTHYGMNWVRQAPGKGLEWVGWINTYTGEPTYAADFKRRFTFSLDTSKSTAYLQMNSLRAEDTAVYYCAKYPYYYGTSHWYFDVWGQGTLVTVSSASTKGPSVFPLAPSSKSTSGGTAALGCLVKDYFPEPVTVSWNSGALTSGVHTFPAVLQSSGLYSLSSVVTVPSSSLGTQTYICNVNHKPSNTKVDKKVEPKSCDKTHGGGGSGGGGSGGGGSGGGGSGGGGSGGGGSGGGGSGGGGSGGGGSGGGGSDIQLTQSPSSLSASVGDRVTITCSASQDISNYLNWYQQKPGKAPKVLIYFTSSLHSGVPSRFSGSGSGTDFTLTISSLQPEDFATYYCQQYSTVPWTFGQGTKVEIKRTVAAPSVFIFPPSDEQLKSGTASVVCLLNNFYPREAKVQWKVDNALQSGNSQESVTEQDSKDSTYSLSSTLTLSKADYEKHKVYACEVTHQGLSSPVTKSFNRGEC
light chain (kappa): B1 light
B4: #21 (bispecific antibody, human IgG1, kappa, L234A L235A)
heavy chain: DVQLVESGGGVVRPGESLRLSCTASGFTFDSYGMSWVRQAPGKGLEWVSSINVGDNTYYADSVRGRFIISRDSSRNTLYLQMNSLTAEDTAVYYCANWNSFFDYWGLGTLVTVSSASTKGPSVFPLAPSSKSTSGGTAALGCLVKDYFPEPVTVSWNSGALTSGVHTFPAVLQSSGLYSLSSVVTVPSSSLGTQTYICNVNHKPSNTKVDKKVEPKSCDKTHTCPPCPAPEAAGGPSVFLFPPKPKDTLMISRTPEVTCVVVDVSHEDPEVKFNWYVDGVEVHNAKTKPREEQYNSTYRVVSVLTVLHQDWLNGKEYKCKVSNKALGAPIEKTISKAKGQPREPQVYTLPPSREEMTKNQVSLTCLVKGFYPSDIAVEWESNGQPENNYKTTPPVLDSDGSFFLYSKLTVDKSRWQQGNVFSCSVMHEALHNHYTQKSLSLSPGKGGGGSGGGGSGGGGSGGGGSEVQLVESGGGLVQPGGSLRLSCAASGYDFTHYGMNWVRQAPGKGLEWVGWINTYTGEPTYAADFKRRFTFSLDTSKSTAYLQMNSLRAEDTAVYYCAKYPYYYGTSHWYFDVWGQGTLVTVSSASTKGPSVFPLAPSSKSTSGGTAALGCLVKDYFPEPVTVSWNSGALTSGVHTFPAVLQSSGLYSLSSVVTVPSSSLGTQTYICNVNHKPSNTKVDKKVEPKSCDKTHGGGGSGGGGSGGGGSGGGGSGGGGSDIQLTQSPSSLSASVGDRVTITCSASQDISNYLNWYQQKPGKAPKVLIYFTSSLHSGVPSRFSGSGSGTDFTLTISSLQPEDFATYYCQQYSTVPWTFGQGTKVEIKRTVAAPSVFIFPPSDEQLKSGTASVVCLLNNFYPREAKVQWKVDNALQSGNSQESVTEQDSKDSTYSLSSTLTLSKADYEKHKVYACEVTHQGLSSPVTKSFNRGEC
light chain (kappa): B1 light
B5: #22 (bispecific antibody, human IgG1, kappa, L234A L235A)
heavy chain: DVQLVESGGGVVRPGESLRLSCTASGFTFDSYGMSWVRQAPGKGLEWVSSINVGDNTYYADSVRGRFIISRDSSRNTLYLQMNSLTAEDTAVYYCANWNSFFDYWGLGTLVTVSSASTKGPSVFPLAPSSKSTSGGTAALGCLVKDYFPEPVTVSWNSGALTSGVHTFPAVLQSSGLYSLSSVVTVPSSSLGTQTYICNVNHKPSNTKVDKKVEPKSCDKTHTCPPCPAPEAAGGPSVFLFPPKPKDTLMISRTPEVTCVVVDVSHEDPEVKFNWYVDGVEVHNAKTKPREEQYNSTYRVVSVLTVLHQDWLNGKEYKCKVSNKALGAPIEKTISKAKGQPREPQVYTLPPSREEMTKNQVSLTCLVKGFYPSDIAVEWESNGQPENNYKTTPPVLDSDGSFFLYSKLTVDKSRWQQGNVFSCSVMHEALHNHYTQKSLSLSPGKGGGGSGGGGSGGGGSGGGGSEVQLVESGGGLVQPGGSLRLSCAASGYDFTHYGMNWVRQAPGKGLEWVGWINTYTGEPTYAADFKRRFTFSLDTSKSTAYLQMNSLRAEDTAVYYCAKYPYYYGTSHWYFDVWGQGTLVTVSSASTKGPSVFPLAPSSKSTSGGTAALGCLVKDYFPEPVTVSWNSGALTSGVHTFPAVLQSSGLYSLSSVVTVPSSSLGTQTYICNVNHKPSNTKVDKKVEPKSCDKTHGGGGSGGGGSGGGGSGGGGSGGGGSGGGGSDIQLTQSPSSLSASVGDRVTITCSASQDISNYLNWYQQKPGKAPKVLIYFTSSLHSGVPSRFSGSGSGTDFTLTISSLQPEDFATYYCQQYSTVPWTFGQGTKVEIKRTVAAPSVFIFPPSDEQLKSGTASVVCLLNNFYPREAKVQWKVDNALQSGNSQESVTEQDSKDSTYSLSSTLTLSKADYEKHKVYACEVTHQGLSSPVTKSFNRGEC
light chain (kappa): B1 light

How the values were obtained:
Assay in all cases: cell-based or functional assay
[1] = target: T1, human Tie2 (human, UniProt Q02763 23-1124)
[2] = target: T1, human Tie2; remark: listed apart in the source
[3] = target: T2, VEGF (human, UniProt P15692-4)
T2 sequence (VEGF-165 chain, looked up): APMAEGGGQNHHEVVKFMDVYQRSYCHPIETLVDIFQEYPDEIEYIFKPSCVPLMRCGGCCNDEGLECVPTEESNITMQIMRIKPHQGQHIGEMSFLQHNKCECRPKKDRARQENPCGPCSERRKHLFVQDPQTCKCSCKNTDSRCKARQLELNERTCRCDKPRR

[4] = target: T1, human Tie2; remark: listed apart in the source

T1 sequence (Q02763 23-1124): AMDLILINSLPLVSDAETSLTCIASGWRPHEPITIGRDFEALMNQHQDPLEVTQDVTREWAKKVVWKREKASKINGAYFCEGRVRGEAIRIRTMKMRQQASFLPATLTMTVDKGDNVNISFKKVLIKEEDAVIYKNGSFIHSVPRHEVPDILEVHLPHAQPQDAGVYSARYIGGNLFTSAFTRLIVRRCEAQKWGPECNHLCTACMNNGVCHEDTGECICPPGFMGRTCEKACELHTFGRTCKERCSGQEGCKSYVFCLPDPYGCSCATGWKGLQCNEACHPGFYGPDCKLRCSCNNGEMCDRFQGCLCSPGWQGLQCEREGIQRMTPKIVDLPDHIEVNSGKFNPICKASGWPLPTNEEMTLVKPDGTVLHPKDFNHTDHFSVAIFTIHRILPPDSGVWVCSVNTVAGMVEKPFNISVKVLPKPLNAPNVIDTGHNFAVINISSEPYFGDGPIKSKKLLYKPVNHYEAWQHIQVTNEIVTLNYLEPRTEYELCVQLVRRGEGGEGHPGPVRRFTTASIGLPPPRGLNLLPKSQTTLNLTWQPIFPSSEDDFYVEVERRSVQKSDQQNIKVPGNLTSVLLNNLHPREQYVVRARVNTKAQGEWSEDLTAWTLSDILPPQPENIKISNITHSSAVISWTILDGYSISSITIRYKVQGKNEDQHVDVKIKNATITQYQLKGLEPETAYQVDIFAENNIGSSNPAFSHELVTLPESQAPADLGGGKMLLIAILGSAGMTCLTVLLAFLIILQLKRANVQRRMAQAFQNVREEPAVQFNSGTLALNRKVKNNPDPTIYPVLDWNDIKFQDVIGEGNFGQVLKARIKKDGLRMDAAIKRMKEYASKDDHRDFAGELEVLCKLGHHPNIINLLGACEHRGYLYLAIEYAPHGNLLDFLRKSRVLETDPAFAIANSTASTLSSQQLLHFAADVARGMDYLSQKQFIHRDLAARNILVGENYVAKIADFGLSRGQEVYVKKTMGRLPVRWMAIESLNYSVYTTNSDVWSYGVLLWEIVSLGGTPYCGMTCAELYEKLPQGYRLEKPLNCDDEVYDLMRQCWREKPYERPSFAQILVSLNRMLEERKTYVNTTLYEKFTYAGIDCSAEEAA

| Binder | EC50, pTie2 in HUVEC (in vitro potency; the sheet's head prints no unit, EC50 in nM per legend paragraph 17) [4] [nM] | also measured |
| --- | --- | --- |
| B1 |  | EC50, pAkt in HUVEC (MSD ELISA) [Panel B] [1]: 5.39 nM; EC50, pTie2 in HUVEC, W/ VEGF (20 nM VEGF-165 per paragraph 153) [Panel E] [2]: 2.24 nM; EC50, pTie2 in HUVEC, W/O VEGF [Panel E] [2]: 11 nM; EC50, VEGF neutralisation, KDR/NFAT-RE HEK293 luciferase reporter [3]: 107 pM |
| B2 | 5.9 |  |
| B3 | 5.59 |  |
| B4 | 4.57 |  |
| B5 | 6.04 |  |
